Source: PubChem BioAssay AID938 (National Center for Advancing Translational Sciences (NCATS), 2007)
About 1,800 (2.5%) of roughly 73,000 compounds were called active. Inconclusive results, whose numbers are uncertain, are shown with a selection of clear calls. The call rests on the fitted dose curve; in most records, active means well fitted activation curve with a large enough effect; inconclusive means small, poorly fitted or top-dose-only effect; inactive means no such curve, though single readings can be large or run the other way. Where the call is inconclusive, the potency comes from a doubtful curve fit.
Potency means the concentration at half of the fitted maximal effect; tags describe the fitted curve by direction and shape.

Assay: qHTS Assay for Agonists of the Thyroid Stimulating Hormone Receptor: Activators of Intracellular cAMP Concentrations in Parental HEK 293; further: nearly all actives have a fitted effect of over 55% in size; on activation: % of control where 0% means no effect
Settings: parental HEK293 CNG cAMP sensor, membrane potential fluorescence; activation: at 57.1 µM (top of the series) unless noted
Summary of the method: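 Counterscreen for endogenous-receptor signalling: CNG-channel HEK 293 cells report cAMP rise by membrane depolarization. After 60 min dye equilibration with 100 uM RO 20-1724, compounds incubated 30 min before bottom-read fluorescence at 590 nm.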
For `CC1CCCC(NS(=O)(=O)c2ccc3c(c2)OCCO3)C1C` (configuration not stated), the Potency was inconclusive: 31.6 µM [activator, single point]. For `O=C(CSc1n[nH]c(-c2ccccc2)n1)c1ccc(O)c(O)c1`, the Potency was “inactive”. For `COc1ccc(-c2nnc3n2N=C(C)CS3)cc1OC`, the Potency was inconclusive: 15.8 µM [activator, partial curve]. With `CCOC(=O)N1CCN(S(=O)(=O)Cc2ccccc2)CC1` the Potency was inconclusive: 0.631 µM [activator, full curve]. In the case of `COc1cc2c3c(c1)/C(=C1/SC(NC(C)=O)=NC1=O)C(=O)N3C(C)(C)C=C2C`, the Potency is reported as inconclusive: 7.94 µM [activator, partial curve]. In the case of `CC1(C)O[C@@H]2O[C@H]([C@H](O)CO/N=C3/[C@H]4O[C@@H]4[C@@H](O)[C@H]4[C@H]3CCn3c(=O)n(-c5ccccc5)c(=O)n34)[C@@H](O)[C@@H]2O1`, the activation is reported as inactive: 1.7% [at 11.4 µM]. In the case of `Cc1nn(Cc2ccccc2)c(Cl)c1C(=O)OC1CCOC1=O` (configuration not stated), the Potency is reported as “inactive”. In the case of `COc1ccccc1CN1CCN(C(CC(C)C)c2nnnn2Cc2cccs2)CC1` (configuration not stated), the Potency is reported as inconclusive: 3.16 µM [activator, partial curve]. With `CCCN1C(=O)c2ccccc2NC1c1ccc(OC)cc1OC` (configuration not stated) the Potency was inconclusive: 25.1 µM [activator, single point]. In the case of `C[N+](C)(C)CCN[N@@+]1(C)CCCc2ccccc21`, the activation is reported as inactive: 1.35% [at 11.4 µM]. In the case of `CCN(CCO)c1ccc(-n2c(N)c(C(=O)OC)c3nc4ccccc4nc32)cc1`, the Potency is reported as “inactive”. In the case of `COC(=O)[C@@]1(Cc2ccc(OC)cc2)[C@H]2c3cc(C(=O)N(C)C)n(Cc4ccc(O)c(OC)c4)c3C[C@H]2CN1C(=O)c1ccccc1`, the Potency is reported as inconclusive: 20 µM [activator, single point]. In the case of `CN(C)CCC(=O)c1ccc2c(c1)OCO2`, the Potency is reported as “inactive”. With `CC(C)NCC[C@@H](O)c1cc2ccccc2o1` the activation was inactive: 7.83% [at 11.4 µM]. With `CC(CO)(CO)Nc1ncnc2ccccc12` the activation was inactive: 11.4% [at 11.4 µM]. For `CC(C)(C)c1csc(NC(=O)CSc2nc3ccccc3c(=O)[nH]2)n1`, the Potency was inconclusive: 10 µM [activator, partial curve]. With `c1ccc2c(c1)nc(N1CCN(C3CCCCC3)CC1)c1nnnn12` the Potency was inconclusive: 1.26 µM [activator, full curve]. In the case of `CCN(Cc1ccccc1)C(=O)CCCOc1ccccc1`, the Potency is reported as inconclusive: 2.51 µM [activator, partial curve]. In the case of `O=C(c1cccs1)N(CC1CCCO1)c1nc(-c2ccccc2)cs1` (configuration not stated), the Potency is reported as active: 15.8 µM. With `COc1cccc(C2C=C(c3ccc(OC)cc3OC)Nc3nnnn32)c1` (configuration not stated) the Potency was inconclusive: 39.8 µM [activator, single point]. For `CCOC(=O)CSC(CC)C(=O)Nc1nnc(C(C)C)s1` (configuration not stated), the Potency was inconclusive: 39.8 µM [activator, single point]. For `CC(C)OCCCNC(=O)c1cc2c(s1)CS(=O)(=O)C2`, the Potency was inconclusive: 3.98 µM [activator, partial curve]. For `COC(=O)c1c(C)[nH]c(C(=O)COC(=O)Cc2ccc3c(c2)OCCO3)c1C`, the Potency was inconclusive: 10 µM [activator, partial curve]. For `O=C(c1cccc(F)c1)N1CCC2(CCCN(c3ccncc3)C2)CC1`, the Potency was inconclusive: 20 µM [activator, partial curve]. For `O=C(c1c(F)c(F)c(F)c(F)c1F)N1CCN(c2cccc(C(F)(F)F)c2)CC1`, the Potency was inconclusive: 20 µM [activator, partial curve]. For `COc1cc(/C=N\n2nnnc2N)ccc1OCc1ccc(F)cc1`, the Potency was inconclusive: 20 µM [activator, single point]. For `COCCCNC(=O)CC1Oc2ccccc2NC1=O` (configuration not stated), the Potency was inconclusive: 31.6 µM [activator, single point]. With `O=C(CSc1nnc(-c2cccs2)n1-c1ccccc1)c1ccc2c(c1)OCCO2` the Potency was inconclusive: 39.8 µM [activator, single point]. With `N=c1c(C(=O)NCc2ccco2)cc2c(=O)n3ccccc3nc2n1CCc1ccccc1` the Potency was “inactive”. With `CCOc1ccc(Cc2nnc(SCC(=O)c3ccc(OC)cc3)o2)cc1` the Potency was inconclusive: 31.6 µM [activator, single point]. With `CC(=O)OCC1OC(c2ccccc2)C(OC(C)=O)C(OC(C)=O)C1OC(C)=O` (configuration not stated) the Potency was inconclusive: 6.31 µM [activator, single point]. For `CC1CC(=O)C2=C(C1)Nc1ccccc1N(C(=O)COc1ccccc1)C2c1ccco1` (configuration not stated), the Potency was inconclusive: 25.1 µM [activator, single point]. In the case of `COc1ccc(-c2nc3cnc(Nc4cccc(OC)c4)nc3n(CCC#N)c2=O)cc1`, the Potency is reported as inconclusive: 25.1 µM [activator, single point]. In the case of `O=C(CSc1nc2cc(Cl)ccc2s1)N1CCN(C(=O)c2ccco2)CC1`, the Potency is reported as inconclusive: 25.1 µM [activator, single point]. With `COc1ccc(CN2C(=O)c3cccnc3C2Nc2ccc(OC)c(Cl)c2)cc1` (configuration not stated) the Potency was “inactive”. With `CCn1c(SCC(=O)N2CCOCC2)nc(O)cc1=O` the Potency was inconclusive: 5.01 µM [activator, single point]. In the case of `CCN(Cc1ccccc1)C(c1cccc(C#N)c1)c1nnnn1C(C)(C)C` (configuration not stated), the Potency is reported as inconclusive: 6.31 µM [activator, partial curve]. With `COc1ccc(-c2cc(C(F)(F)F)nc(SCCC(=O)Nc3cc(C)on3)n2)cc1` the Potency was inconclusive: 20 µM [activator, partial curve]. In the case of `CCCn1c(-c2ccc(F)cc2)nc2c(N3CCN(CCC(=O)OCC)CC3)nc(C)nc21`, the Potency is reported as inconclusive: 31.6 µM [activator, single point]. With `CC(C)c1nnc(NC(=O)CCC(=O)N2CCN(Cc3ccccc3)CC2)s1` the Potency was inconclusive: 39.8 µM [activator, single point]. In the case of `Cc1nc2cnc(Oc3ccccc3)nc2n(CCC#N)c1=O`, the Potency is reported as inconclusive: 31.6 µM [activator, single point]. For `O=C(Cn1cnc2c(nnn2Cc2ccccc2F)c1=O)N1CCN(c2ccccc2)CC1`, the Potency was inconclusive: 39.8 µM [activator, single point]. In the case of `CN(C)C(=O)c1ccc(-c2cncnc2-n2ccnc2)cc1`, the Potency is reported as inconclusive: 31.6 µM [activator, partial curve]. In the case of `CC(=O)N1CCN(c2ccc(NCc3cccs3)cc2)CC1`, the Potency is reported as “inactive”. In the case of `CCC(=O)N1CC2(C)CN(C(=O)CC)CC(C)(C1)C2`, the Potency is reported as “inactive”. In the case of `CC(=O)N1CCC2(CC1)CCN(c1cccc(-c3ccccc3)c1)CC2`, the Potency is reported as “inactive”. In the case of `CCCn1c(SCC(=O)NCCc2ccccc2)nnc1-c1ccccn1`, the Potency is reported as “inactive”. For `COc1ccc(CCNc2c(C)c(C)nc3ncnn23)cc1`, the Potency was inconclusive: 3.16 µM [activator, full curve, poor fit]. In the case of `O=C(Nc1cccc(O)c1)c1cc(S(=O)(=O)N2CCCC2)ccc1Cl`, the Potency is reported as inconclusive: 0.126 µM [activator, single point]. For `COc1cc(Cc2cnc(N)nc2N)cc(OC)c1OC`, the Potency was inconclusive: 5.01 µM [activator, full curve, poor fit]. For `CCCc1c(C)c2cccc(C)c2[nH]c1=O`, the Potency was inconclusive: 6.31 µM [activator, single point]. With `CC(C)CC(NC(=O)C(CC(C)C)NC(=O)OC(C)(C)C)C(=O)O` (configuration not stated) the Potency was inconclusive: 2 µM [activator, partial curve]. With `COc1ccc(S(=O)(=O)N2CCN(c3ccccn3)CC2)cc1OC` the Potency was “inactive”. For `Cc1ccc(-c2noc(CCC(=O)NCCN3CCN(Cc4ccccc4)CC3)n2)cc1`, the Potency was inconclusive: 20 µM [activator, single point]. In the case of `Oc1c(Cl)cc(C(c2cc(Cl)c(O)c(Cl)c2)C(c2cc(Cl)c(O)c(Cl)c2)c2cc(Cl)c(O)c(Cl)c2)cc1Cl`, the activation is reported as inactive: -4.48% [at 11.4 µM]. With `Cc1cccc(-c2nnc3sc(-c4ccccc4C)nn23)c1` the Potency was active: 31.6 µM. For `O=C(O)CCC(=O)c1ccc(Cl)cc1`, the activation was inactive: 14.4% [at 11.4 µM]. With `C[C@H]1[C@H](C)CC[C@]2(C(=O)O)CC[C@]3(C)C(=CC[C@@H]4[C@]5(C)C[C@H](O)[C@@H](O)[C@@](C)(CO)[C@@H]5[C@H](O)C[C@@]43C)[C@H]12` the activation was inconclusive: 75.8% [activator] [at 11.4 µM]. In the case of `Cc1ccc(NC2=CC(=O)CC(C)(C)C2)cc1C`, the Potency is reported as inconclusive: 12.6 µM [activator, partial curve]. In the case of `CCOc1ccccc1N(CC)C(=O)Cn1ncc2c(=O)oc3ccccc3c21`, the Potency is reported as inconclusive: 3.98 µM [activator, single point]. With `CN(C)c1ncc2nc(CCc3ccccc3)c(=O)n(Cc3cccs3)c2n1` the Potency was inconclusive: 10 µM [activator, partial curve]. With `CCC(=O)N1CCN(C(C)=O)C1c1ccccc1` (configuration not stated) the Potency was inconclusive: 20 µM [activator, single point]. For `COc1ccc(CCN2CNc3c(c(=O)n(C)c(=O)n3C)C2)cc1OC`, the Potency was “inactive”. With `CCC(CC)C(=O)Nc1cccc(C(=O)N2CCCCCC2)c1` the Potency was inconclusive: 15.8 µM [activator, partial curve]. With `Cc1cc(C)c(NC2=CC(=O)CC(C)(C)C2)c(C#N)c1` the Potency was inconclusive: 25.1 µM [activator, single point]. For `O=C(c1cnc2ccccn2c1=O)N1CCCc2ccccc21`, the Potency was inconclusive: 39.8 µM [activator, single point]. In the case of `O=C(NCc1ccco1)c1c(O)c2cccc3c2n(c1=O)CCC3`, the Potency is reported as inconclusive: 5.01 µM [activator, full curve].
